Measured values from PubChem BioAssay (NCATS).
Inconclusive results, whose numbers are uncertain, are shown with a selection of clear calls. For part of these data: A potency beside an inconclusive call is a rough fit, not a confirmed value. For part of these data: “Side channel” marks fits to a control or component signal instead of the main read-out. Activity calls are given as the source filed them. Unless noted, calls follow the shape of the full dose curve.

Columns and labels:
[1] = target: Estrogen receptor (Homo sapiens) (UniProt P03372); assay: qHTS assay for small molecule antagonists of estrogen receptor alpha signaling (AID 588513; active = well fitted curve in the direction sought with a large enough effect in the signal ratio, with a control signal flat, not every such curve was filed as active; inconclusive = small, poorly fitted or top-dose-only effect, or effect the other way, or a change in a side signal; inactive = no such curve, though single readings can be large or run the other way; the % refers to the signal ratio; also: % is scaled to controls: 0 for no effect and ±100 for the full control effect); conditions: ER-alpha-UAS-bla HEK293, beta-lactamase ratio, antagonist mode; activity, negative = inhibition: at 76.9 µM (top of the series) unless noted
Procedure, shortened: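 Antagonist mode: inhibition of 0.5 nM 17-beta-estradiol-driven beta-lactamase reporter in HEK 293 ER-alpha-UAS-bla cells, 18 h at 37C, CCF4 readout after 2 h at RT. Normalised to estradiol and DMSO; titration fitted to Hill.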

[2] = target: Estrogen receptor (Homo sapiens) (UniProt P03372); assay: qHTS assay for small molecule agonists of estrogen receptor alpha signaling (AID 588514); conditions: ER-alpha-UAS-bla HEK293, beta-lactamase ratio, 18 h; activation: at 76.8 µM (top of the series), percent of full estradiol response, vehicle zero unless noted;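 also: 0% = vehicle only and 100% = reference agonist; nearly all actives have a fitted effect of over 70% in size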
Procedure, shortened: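 Efficacy is expressed against 20 nM 17-beta-estradiol (100%) and DMSO basal (0%); EC50 from Hill equation. Assay: beta-lactamase reporter in ER-alpha-UAS-bla HEK 293 cells, 18 h compound incubation, CCF4 detection.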

[3] = target: Thyroid hormone receptor beta (Homo sapiens) (UniProt P10828); assay: qHTS assay for small molecule antagonists of thyroid hormone receptor beta signaling (AID 588547; active = well fitted inhibition curve with a large enough effect in the signal ratio, with a control signal flat, not every such curve was filed as active; inconclusive = small, poorly fitted or top-dose-only effect, or effect the other way, or a change in a side signal; the % refers to the signal ratio; also: potency is read from the fitted curve at half-maximal effect;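 as to activity change % (negative = inhibition): cells stimulated with 0.4 nM T3 agonist during compound exposure; % is scaled to controls: 0 for no effect and ±100 for the full control effect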); conditions: TR-UAS-bla HEK293, beta-lactamase ratio, antagonist mode, 18 h
Procedure, shortened: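 Inhibition of T3-driven (0.4nM final) beta-lactamase reporter activity was measured over 0.59 nM to 92 uM compound after 18 h at 37 C. The cells were GripTite HEK293 TR-UAS-bla in charcoal/dextran-stripped serum, with CCF4 ratio read-out and IC50 from Hill fits.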

[4] = qHTS assay for small molecule agonists of the antioxidant response element (ARE) signaling pathway (AID 651741; active = well fitted activation curve with a large enough effect in the signal ratio; inconclusive = small, poorly fitted or top-dose-only effect, or effect the other way, or a change in a side signal; the % refers to the signal ratio; also: potency is read from the fitted curve at half-maximal effect; as to activation: % of control where 0% means no effect); conditions: HepG2 ARE-bla reporter, beta-lactamase FRET ratio, 16 h; activation: at 96 µM (top of the series) unless noted
Procedure, shortened: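 Beta-lactamase reporter under ARE control in HepG2 cells, 2,000 per well, was induced by 16 h compound treatment at 37 C. Read-out was fluorescence from LiveBLAzer B/G FRET substrate after 2 h at room temperature.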

[5] = qHTS assay for cell viability of the p53RE-bla HCT-116 cell line (AID 743292; active = well fitted curve in the direction sought with a large enough effect; inconclusive = small, poorly fitted or top-dose-only effect, or another doubt; inactive = no such curve, though single readings can be large; an effect the other way counts as inactive or inconclusive; also: potency is read from the fitted curve at half-maximal effect; nearly all actives have a fitted effect of over 55% in size)
Procedure, shortened: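 Readout: CellTiter-Glo luminescence after 30 min RT. Treatment: compounds in DMSO, 16 h, 37 C. Cells: CellSensor p53RE-bla HCT-116, 4,000/well, preincubated 5 h.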

[6] = target: Peroxisome proliferator-activated receptor gamma (Homo sapiens) (UniProt P37231); assay: qHTS assay for small molecule antagonists of peroxisome proliferator-activated receptor gamma signaling (AID 588537; active = well fitted inhibition curve with a large enough effect in the signal ratio, with a control signal flat, not every such curve was filed as active; inconclusive = small, poorly fitted or top-dose-only effect, or effect the other way, or a change in a side signal; the % refers to the signal ratio;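 also: reporter cells co-stimulated with 50 nM rosiglitazone agonist during compound treatment; % of control where 0% means no effect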); conditions: HEK293 PPARg-UAS-bla, beta-lactamase ratio, antagonist mode; activity, negative = inhibition: at 76.8 µM (top of the series) unless noted
Procedure, shortened: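 Antagonist-mode β-lactamase reporter screen run as a titration series. HEK293 PPARγ-UAS-bla cells are stimulated with rosiglitazone (50 nM final) for 16 h, then CCF4 is read at 460/530 nm. Data are scaled between DMSO and rosiglitazone and fitted to the Hill equation.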

[7] = target: Retinoic acid receptor RXR-alpha (Homo sapiens) (UniProt P19793); assay: qHTS assay for small molecule agonists of retinoid X receptor alpha signaling (AID 588544); conditions: HEK293T RXRa-UAS-bla, beta-lactamase reporter, 18 h; activation: at 76.7 µM (top of the series);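 also: 0% = DMSO basal wells and 100% = reference agonist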
[8] = target: Peroxisome proliferator-activated receptor delta (Homo sapiens) (UniProt Q03181); assay: qHTS assay for small molecule agonists of peroxisome proliferator-activated receptor delta signaling (AID 588534); conditions: HEK293T PPARdelta-UAS-bla, beta-lactamase ratio, 18 h; activation: at 76.7 µM (top of the series) unless noted;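 also: 0% = DMSO basal wells and 100% = positive control agonist at 10 µM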
Procedure, shortened: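 Agonist-mode qHTS; reporter cells, 5 hrs 37 C pre-incubation; compound titration, 18 hrs 37 C; CCF4 dye, 2 hrs RT; fluorescence read. EC50/efficacy via Hill fit.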

[9] = target: Androgen receptor (Homo sapiens) (UniProt P10275); assay: qHTS assay for small molecule antagonists of androgen receptor signaling (AID 588516; active = well fitted curve in the direction sought with a large enough effect in the signal ratio, with a control signal flat, not every such curve was filed as active; inconclusive = small, poorly fitted or top-dose-only effect, or effect the other way, or a change in a side signal; inactive = no such curve, though single readings can be large or run the other way; the % refers to the signal ratio; also: % is scaled to controls: 0 for no effect and ±100 for the full control effect); conditions: AR-UAS-bla HEK293, beta-lactamase ratio, antagonist mode, 16 h; activity change, negative = inhibition: at 76.8 µM (top of the series)
Procedure, shortened: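 Cells were plated and incubated 5 h, compounds added in titration, then R1881 (10 nM final) as agonist. After 16 h at 37 C, CCF4 substrate was loaded for 2 h at room temperature and fluorescence measured.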

[10] = target: Peroxisome proliferator-activated receptor delta (Homo sapiens) (UniProt Q03181); assay: qHTS assay for small molecule antagonists of peroxisome proliferator-activated receptor delta signaling (AID 588535; active = well fitted inhibition curve with a large enough effect in the signal ratio, with a control signal flat, not every such curve was filed as active; inconclusive = small, poorly fitted or top-dose-only effect, or effect the other way, or a change in a side signal; inactive = no such curve, though single readings can be large or run the other way; the % refers to the signal ratio); conditions: HEK293T PPARd-UAS-bla, beta-lactamase FRET ratio, 18 h; activity change, negative = inhibition: at 76.7 µM (top of the series) unless noted
Procedure, shortened: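 Titrations were run on PPAR-delta-UAS-bla HEK293T cells in charcoal/dextran-stripped serum, incubated 18 h at 37 C. CCF4 fluorescence (460/530 nm) after 2 h RT; Hill equation yields IC50 and maximal response.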

[11] = target: Peroxisome proliferator-activated receptor alpha (Homo sapiens) (UniProt Q07869); assay: qHTS assay for small molecule agonists of the peroxisome proliferator-activated receptor alpha (PPARalpha) signaling pathway (AID 651778; active = well fitted curve in the direction sought with a large enough effect; inconclusive = small, poorly fitted or top-dose-only effect, or another doubt; inactive = no such curve, though single readings can be large; an effect the other way counts as inactive or inconclusive; also: potency is read from the fitted curve at half-maximal effect; as to max response: % of control where 0% means no effect); conditions: PathHunter PPARalpha complementation, chemiluminescence, 6 h; max response: stronger effect = higher value
Procedure, shortened: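 Chemiluminescence from complemented enzyme reported PPARalpha activation in cells after 6 hr of compound treatment at 37 C. The detection reagent was incubated for 60 min at room temperature, and compounds were scored as agonists.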

[12] = target: Retinoic acid receptor RXR-alpha (Homo sapiens) (UniProt P19793); assay: qHTS assay for small molecule antagonists of retinoid X receptor alpha signaling (AID 588546; active = well fitted inhibition curve with a large enough effect in the signal ratio, with a control signal flat, not every such curve was filed as active; inconclusive = small, poorly fitted or top-dose-only effect, or effect the other way, or a change in a side signal; inactive = no such curve, though single readings can be large or run the other way; the % refers to the signal ratio;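 also: cells stimulated with 9-cis-retinoic acid as agonist; % is scaled to controls: 0 for no effect and ±100 for the full control effect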); conditions: HEK293T RXRa-UAS-bla, beta-lactamase ratio, antagonist mode
Procedure, shortened: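 Beta-lactamase reporter inhibition, read as CCF4 fluorescence ratio (ex 405, em 460/530 nm) after 2 h at RT. HEK293T UAS-bla cells, 2500/well, were stimulated with 9-cis-RA at 500 or 100 nM final alongside test compound for 18 h at 37 C.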

[13] = Cellular Toxicity (caspase-3) Jurkat (AID 655; active = well fitted curve in the direction sought with a large enough effect; inconclusive = small, poorly fitted or top-dose-only effect, or another doubt; inactive = no such curve, though single readings can be large; an effect the other way counts as inactive or inconclusive;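 also: cells exposed to compound for 16 h at 37 °C before reading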); conditions: Jurkat caspase-3 activation, luminescence, DMSO = 0%, tamoxifen = 100%; at 92.2 µM (top of the series)
Procedure, shortened: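 Luminescent Caspase-Glo 3/7 read-out (20 min, room temperature) after 16 h compound treatment at 37 C of 5000 Jurkat cells per well. AC50 derived by Hill-equation fitting, scaled between DMSO basal and 100 uM tamoxifen stimulation.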

[14] = Cellular Toxicity (caspase-3) Mesangial (AID 660; active = well fitted curve in the direction sought with a large enough effect; inconclusive = small, poorly fitted or top-dose-only effect, or another doubt; inactive = no such curve, though single readings can be large; an effect the other way counts as inactive or inconclusive;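 also: combined caspase 3 and 7 activity read by Caspase-Glo luminescence; cells exposed to compound for 16 h before the caspase read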); conditions: mesangial cells, normalized: DMSO 0%, 100 µM tamoxifen 100%; at 91.7 µM (top of the series)
Procedure, shortened: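 Seed cells derived from normal human renal glomeruli, incubate 5 h, add compounds across concentrations and incubate 16 h at 37 °C. Caspase 3/7 activation is then quantified by luciferase light, with AC50 derived by Hill modeling.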

[15] = MultiTox-Fluor Cytotoxicity Assay - LYMP1-002 - Dead Cells (AID 960; active = well fitted curve in the direction sought with a large enough effect; inconclusive = small, poorly fitted or top-dose-only effect, or another doubt; inactive = no such curve, though single readings can be large; an effect the other way counts as inactive or inconclusive;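 also: 0% = DMSO and 100% = tetraoctylammonium bromide; nearly all actives have a fitted effect of over 60% in size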); conditions: LYMP1-002 lymphoblastoid cells, dead-cell protease fluorescence; cytotoxicity (dead cells): at 46.1 µM (top of the series)
Procedure, shortened: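 Cells were plated, rested 5 hr, then treated with compound dilution series for 16 hr at 37 C. After adding substrate reagent and 60 min at room temperature, dead-cell protease fluorescence gave concentration-response curves fitted by the Hill equation.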

[16] = Cell Viability - LYMP2-005 (AID 967; active = well fitted curve in the direction sought with a large enough effect; inconclusive = small, poorly fitted or top-dose-only effect, or another doubt; inactive = no such curve, though single readings can be large; an effect the other way counts as inactive or inconclusive;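 also: plate controls were DMSO only for no effect and 92 µM tetraoctylammonium bromide control for full effect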)
Procedure, shortened: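 LYMP2-005 human lymphoblastoid cells (2500/well) were treated with compounds for 24 h at 37 C. Intracellular ATP was then measured by CellTiter-Glo luminescence after 30 min at room temperature. AC50 values came from Hill-equation fits of qHTS concentration-response data.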

[17] = Cell Viability - LYMP2-009 (AID 968; active = well fitted curve in the direction sought with a large enough effect; inconclusive = small, poorly fitted or top-dose-only effect, or another doubt; inactive = no such curve, though single readings can be large; an effect the other way counts as inactive or inconclusive;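 also: 0% = DMSO alone and the full-kill end = tetraoctylammonium bromide at 92 µM; nearly all actives have a fitted effect of over 55% in size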); conditions: LYMP2-009 lymphoblastoid cell viability; activity change, negative = viability loss: at 92.2 µM (top of the series)
[18] = Cell Viability - LYMP2-020 (AID 986; active = well fitted curve in the direction sought with a large enough effect; inconclusive = small, poorly fitted or top-dose-only effect, or another doubt; inactive = no such curve, though single readings can be large; an effect the other way counts as inactive or inconclusive;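 also: plate controls were DMSO only for no effect and tetraoctylammonium bromide at 92 µM for full effect; nearly all actives have a fitted effect of over 55% in size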); conditions: activity change, negative = viability loss: at 92.2 µM (top of the series)
Procedure, shortened: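 Seed 2500 cells per well and incubate 5 hr at 37 C. Add compounds at a concentration series and incubate 24 hr at 37 C. Add CellTiter-Glo, wait 30 min at RT, read luminescence, and fit a Hill curve for AC50.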

[19] = target: Thyroid hormone receptor beta (Homo sapiens) (UniProt P10828); assay: qHTS assay for small molecule agonists of thyroid hormone receptor beta signaling (AID 588545); conditions: TR-UAS-bla GripTite HEK 293, beta-lactamase ratio, agonist mode, 18 h; activation: at 76.7 µM, percent of T3 response, DMSO as zero; also: potency is read from the fitted curve at half-maximal effect
Procedure, shortened: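 Agonist-mode beta-lactamase reporter assay, HEK 293 cells, 2% charcoal/dextran FBS; cells plated 4 hrs, compound 18 hrs at 37 C, CCF4 2 hrs RT. Normalized to 10 nM T3 (100%) and DMSO (0%); Hill fit gives EC50, efficacy.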

[20] = qHTS assay to identify small molecules that stimulate interleukin-8 (IL-8) secretion (AID 651758; active = well fitted activation curve with a large enough effect in the signal ratio; inconclusive = small, poorly fitted or top-dose-only effect, or effect the other way, or a change in a side signal; the % refers to the signal ratio; also: 0% is about no effect); conditions: HTRF ratio (665/615); activation: at 92.2 µM (top of the series)
Procedure, shortened: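 Secreted IL-8 measured homogeneously by TR-FRET (two labelled anti-IL-8 antibodies, 1-3 h at room temperature) after a 16 h, 37 C compound treatment of THP-1 cells at 2000 cells/well.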
Tags tell the direction and shape of the fitted curve or compound fluorescence and quenching.

Chain of UniProt P10828 (P10828 whole entry, looked up): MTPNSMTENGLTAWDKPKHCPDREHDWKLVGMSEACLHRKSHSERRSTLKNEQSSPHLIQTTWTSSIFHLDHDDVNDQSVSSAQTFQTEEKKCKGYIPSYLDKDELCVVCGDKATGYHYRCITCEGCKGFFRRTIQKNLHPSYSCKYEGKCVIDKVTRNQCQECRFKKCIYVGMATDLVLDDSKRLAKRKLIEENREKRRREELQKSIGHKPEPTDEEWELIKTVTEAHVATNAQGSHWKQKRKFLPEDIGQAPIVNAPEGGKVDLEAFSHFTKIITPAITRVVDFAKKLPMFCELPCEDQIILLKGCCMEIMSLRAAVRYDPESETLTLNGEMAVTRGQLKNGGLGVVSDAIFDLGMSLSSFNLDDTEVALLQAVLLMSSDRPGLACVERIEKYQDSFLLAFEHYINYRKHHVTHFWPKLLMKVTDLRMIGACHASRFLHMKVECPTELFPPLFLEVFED
Chain of UniProt P19793 (P19793 whole entry, looked up): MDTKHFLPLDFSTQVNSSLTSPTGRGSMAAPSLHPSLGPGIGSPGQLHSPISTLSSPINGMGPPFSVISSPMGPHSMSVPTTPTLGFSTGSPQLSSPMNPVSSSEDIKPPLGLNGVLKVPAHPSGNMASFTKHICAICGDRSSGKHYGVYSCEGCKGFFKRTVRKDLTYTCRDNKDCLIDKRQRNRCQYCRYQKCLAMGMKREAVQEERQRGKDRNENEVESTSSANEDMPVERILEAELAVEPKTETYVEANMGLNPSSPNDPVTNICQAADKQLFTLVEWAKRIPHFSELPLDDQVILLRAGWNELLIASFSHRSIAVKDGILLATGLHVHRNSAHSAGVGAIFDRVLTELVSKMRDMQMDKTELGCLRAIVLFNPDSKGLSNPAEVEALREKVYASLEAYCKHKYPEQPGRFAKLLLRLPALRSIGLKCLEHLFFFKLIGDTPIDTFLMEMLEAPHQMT
Chain of UniProt P03372 (P03372 whole entry, looked up): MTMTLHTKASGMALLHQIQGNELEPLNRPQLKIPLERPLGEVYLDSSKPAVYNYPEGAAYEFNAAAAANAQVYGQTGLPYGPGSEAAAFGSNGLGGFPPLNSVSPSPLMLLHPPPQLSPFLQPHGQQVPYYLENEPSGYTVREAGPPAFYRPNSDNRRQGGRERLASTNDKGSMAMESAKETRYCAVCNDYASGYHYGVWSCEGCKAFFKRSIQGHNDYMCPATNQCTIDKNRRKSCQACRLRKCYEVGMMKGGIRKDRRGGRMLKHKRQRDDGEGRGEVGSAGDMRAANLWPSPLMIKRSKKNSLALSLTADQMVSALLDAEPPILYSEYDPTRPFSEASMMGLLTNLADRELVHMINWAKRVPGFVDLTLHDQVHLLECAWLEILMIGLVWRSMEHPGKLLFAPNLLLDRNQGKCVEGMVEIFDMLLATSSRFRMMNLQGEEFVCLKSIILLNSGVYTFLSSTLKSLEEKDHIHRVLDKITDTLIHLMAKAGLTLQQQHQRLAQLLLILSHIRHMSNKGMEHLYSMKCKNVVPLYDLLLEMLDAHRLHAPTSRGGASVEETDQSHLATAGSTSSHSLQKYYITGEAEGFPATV
Chain of UniProt Q03181 (Q03181 whole entry, looked up): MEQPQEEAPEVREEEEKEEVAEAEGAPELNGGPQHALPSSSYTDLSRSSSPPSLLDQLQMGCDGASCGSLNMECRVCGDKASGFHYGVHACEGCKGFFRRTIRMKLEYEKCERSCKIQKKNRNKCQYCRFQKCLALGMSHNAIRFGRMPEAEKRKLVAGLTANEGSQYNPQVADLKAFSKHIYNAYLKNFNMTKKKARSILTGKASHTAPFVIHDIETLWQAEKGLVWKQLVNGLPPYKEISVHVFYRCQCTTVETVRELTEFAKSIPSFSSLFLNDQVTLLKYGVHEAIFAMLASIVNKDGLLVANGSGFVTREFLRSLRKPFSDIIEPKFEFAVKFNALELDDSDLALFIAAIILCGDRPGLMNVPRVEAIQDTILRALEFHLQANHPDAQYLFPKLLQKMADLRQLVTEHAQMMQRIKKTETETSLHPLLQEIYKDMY
Chain of UniProt P10275 (P10275 whole entry, looked up): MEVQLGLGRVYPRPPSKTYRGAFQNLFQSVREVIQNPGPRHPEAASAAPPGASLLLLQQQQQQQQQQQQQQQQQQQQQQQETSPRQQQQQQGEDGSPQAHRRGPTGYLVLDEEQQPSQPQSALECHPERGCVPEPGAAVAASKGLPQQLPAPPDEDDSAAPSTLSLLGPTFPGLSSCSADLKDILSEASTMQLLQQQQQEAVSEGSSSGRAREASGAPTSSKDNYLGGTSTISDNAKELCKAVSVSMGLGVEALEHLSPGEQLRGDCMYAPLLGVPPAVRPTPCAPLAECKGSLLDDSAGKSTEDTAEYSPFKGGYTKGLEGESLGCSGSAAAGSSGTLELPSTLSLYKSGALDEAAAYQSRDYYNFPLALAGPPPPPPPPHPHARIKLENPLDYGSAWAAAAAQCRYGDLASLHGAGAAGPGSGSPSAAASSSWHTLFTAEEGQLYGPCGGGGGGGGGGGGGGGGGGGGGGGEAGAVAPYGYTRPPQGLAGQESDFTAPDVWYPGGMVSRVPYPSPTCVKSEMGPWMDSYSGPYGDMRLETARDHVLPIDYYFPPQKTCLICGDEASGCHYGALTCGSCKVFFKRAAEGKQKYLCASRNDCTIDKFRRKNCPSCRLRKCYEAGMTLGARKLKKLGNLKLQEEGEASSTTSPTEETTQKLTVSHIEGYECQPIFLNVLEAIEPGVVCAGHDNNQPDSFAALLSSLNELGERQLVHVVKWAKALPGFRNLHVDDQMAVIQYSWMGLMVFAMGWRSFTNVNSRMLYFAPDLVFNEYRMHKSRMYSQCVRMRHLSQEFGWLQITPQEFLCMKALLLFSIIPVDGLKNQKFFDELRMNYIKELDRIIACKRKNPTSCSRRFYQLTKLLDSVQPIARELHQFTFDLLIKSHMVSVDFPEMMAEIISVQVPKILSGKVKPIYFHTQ
Chain of UniProt Q07869 (Q07869 whole entry, looked up): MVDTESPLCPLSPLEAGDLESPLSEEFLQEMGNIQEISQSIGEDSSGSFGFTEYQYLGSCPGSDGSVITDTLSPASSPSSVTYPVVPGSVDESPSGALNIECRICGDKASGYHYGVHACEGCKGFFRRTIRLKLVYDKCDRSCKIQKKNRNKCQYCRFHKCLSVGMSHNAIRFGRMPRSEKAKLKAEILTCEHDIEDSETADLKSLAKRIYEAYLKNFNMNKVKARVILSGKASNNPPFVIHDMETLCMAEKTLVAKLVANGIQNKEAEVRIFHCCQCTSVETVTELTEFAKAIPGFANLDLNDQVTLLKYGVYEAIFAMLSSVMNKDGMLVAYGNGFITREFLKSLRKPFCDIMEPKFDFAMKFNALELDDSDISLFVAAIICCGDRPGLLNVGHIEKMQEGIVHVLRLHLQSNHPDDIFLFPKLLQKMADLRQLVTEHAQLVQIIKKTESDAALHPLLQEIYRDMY

COc1ccc(OC)c(OC)c1
inconclusive: activation [2] -5.36% | Potency [5] 70.8 µM [cytotoxic, single point]
inactive: Potency [1] | activity change % (negative = inhibition) [3] 7.13% | Potency [4]

CCCCCCc1ccc(N)cc1
inactive: Potency [6]
inconclusive: activity, negative = inhibition [1] -37.8% | activation [2] 51.5% | activation [7] -17.6% | activation [4] 22%

O=[N+]([O-])C(CO)(CO)CO
inactive: Potency [1] | Potency [2] | Potency [8]
inconclusive: Potency [3] 20 µM [side channel, falling, partial curve, poor fit] | Potency [4] 61.1 µM [activator, partial curve]

O=C(O)c1ccc(C(=O)O)c(C(=O)O)c1
inconclusive: activation [4] -5.24%
inactive: Potency [1] | Potency [9] | Potency [10]

Cc1c(Cl)cccc1Cl
inconclusive: activity, negative = inhibition [1] -7.32% | activity, negative = inhibition [6] 3.2% | activation [4] 6.27%
inactive: Potency [2] | max response [11] -1.42%

O=C(O)CN(CCO)CCN(CC(=O)O)CC(=O)O
inactive: Potency [9] | Potency [6] | max response [12] -2.39% | activity change % (negative = inhibition) [3] -8.14% | Potency [4]
inconclusive: activity, negative = inhibition [1] -21.4% | Potency [11] 44.7 µM [activator, partial curve]

CC(C)(c1cc(Br)c(OCC(Br)CBr)c(Br)c1)c1cc(Br)c(OCC(Br)CBr)c(Br)c1 (stereo not given)
inconclusive: activation [8] 29.6% | activity, negative = inhibition [6] 8.68% | activation [7] 25.4% | Potency [19] 1.41 µM [side channel, falling, full curve, poor fit]
inactive: caspase-3 activation [14] 0.758% | Potency [15] | Potency [16] | Potency [17] | Potency [18] | Potency [1] | Potency [2] | Potency [4] | Potency [20]
active: caspase-3 activation [13] 99.2%
